# Measurements as given in the supplement of paper PMC8728848.
# The other results are listed elsewhere or left out.
# What was measured:
# Test in all cases: glycan array binding signal (z-score within array); higher = stronger binding
# Conditions in all cases: glycan notation: IUPAC condensed, linker removed
# [1] = biological target: GlcNAc(a1-4)Gal(b1-3)GlcNAc
# Outline: (§1)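 Glycan array data came from 3228 arrays in the Consortium for Functional Glycomics database, and only arrays with an available protein sequence were kept. Glycan names were put into IUPAC-condensed notation, and columns mapping to the same glycan were averaged. The binding signal is a within-array Z-score, averaged across arrays of one protein sequence run at different concentrations or buffers and across linkers. A negative Z-score can be read as non-binding.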
# [2] = biological target: GlcNAc(a1-4)Gal(b1-4)GalNAc
# Outline: as §1
# [3] = biological target: GlcNAc(a1-4)Gal(b1-4)GlcNAc
# Outline: as §1
# [4] = biological target: GlcNAc(a1-4)Gal(b1-4)GlcNAc(b1-3)Gal(b1-4)Glc
# Outline: as §1
# [5] = biological target: GlcNAc(a1-4)Gal(b1-4)GlcNAc(b1-3)Gal(b1-4)GlcNAc
# Outline: as §1
# [6] = biological target: GlcNAc(a1-4)Gal(b1-4)GlcNAc(b1-3)Gal(b1-4)GlcNAc(b1-3)Gal(b1-4)GlcNAc
# Outline: as §1
# [7] = biological target: GlcNAc(a1-4)Gal(b1-4)GlcNAc(b1-3)Gal(b1-4)[Fuc(a1-3)]GlcNAc(b1-3)Gal(b1-4)[Fuc(a1-3)]GlcNAc
# Outline: as §1
# [8] = biological target: GlcNAc(a1-6)Gal(b1-4)GlcNAc
# Outline: as §1
# [9] = biological target: GlcNAc(b1-2)Gal(b1-3)GalNAc
# Outline: as §1
# [10] = biological target: GlcNAc(b1-2)Man(a1-3)[GlcNAc(b1-2)Man(a1-6)]Man(b1-4)GlcNAc(b1-4)GlcNAc
# Outline: as §1
# [11] = biological target: GlcNAc(b1-2)Man(a1-3)[GlcNAc(b1-2)Man(a1-6)]Man(b1-4)GlcNAc(b1-4)[Fuc(a1-6)]GlcNAc
# Outline: as §1
# [12] = biological target: GlcNAc(b1-2)Man(a1-3)[GlcNAc(b1-4)][GlcNAc(b1-2)Man(a1-6)]Man(b1-4)GlcNAc(b1-4)GlcNAc
# Outline: as §1
# [13] = biological target: GlcNAc(b1-2)Man(a1-3)[GlcNAc(b1-4)][GlcNAc(b1-2)Man(a1-6)]Man(b1-4)GlcNAc(b1-4)[Fuc(a1-6)]GlcNAc
# Outline: as §1
# [14] = biological target: GlcNAc(b1-2)[GlcNAc(b1-4)]Man(a1-3)[GlcNAc(b1-2)Man(a1-6)]Man(b1-4)GlcNAc(b1-4)GlcNAc
# Outline: as §1
# [15] = biological target: GlcNAc(b1-2)[GlcNAc(b1-4)]Man(a1-3)[GlcNAc(b1-4)][GlcNAc(b1-2)Man(a1-6)]Man(b1-4)GlcNAc(b1-4)GlcNAc
# Outline: as §1
# [16] = biological target: GlcNAc(b1-2)[GlcNAc(b1-4)]Man(a1-3)[GlcNAc(b1-4)][GlcNAc(b1-2)[GlcNAc(b1-6)]Man(a1-6)]Man(b1-4)GlcNAc(b1-4)GlcNAc
# Outline: as §1
# [17] = biological target: GlcNAc(b1-2)[GlcNAc(b1-4)]Man(a1-3)[GlcNAc(b1-4)][GlcNAc(b1-2)[GlcNAc(b1-6)]Man(a1-6)]Man(b1-4)GlcNAc(b1-4)[Fuc(a1-6)]GlcNAc
# Outline: as §1
# [18] = biological target: GlcNAc(b1-2)[GlcNAc(b1-6)]Man(a1-6)[GlcNAc(b1-2)Man(a1-3)]Man(b1-4)GlcNAc(b1-4)GlcNAc
# Outline: as §1
# [19] = biological target: GlcNAc(b1-2)[GlcNAc(b1-6)]Man(a1-6)[GlcNAc(b1-2)Man(a1-3)]Man(b1-4)GlcNAc(b1-4)[Fuc(a1-6)]GlcNAc
# Outline: as §1
# [20] = biological target: GlcNAc(b1-2)[GlcNAc(b1-6)]Man(a1-6)[GlcNAc(b1-4)][GlcNAc(b1-2)Man(a1-3)]Man(b1-4)GlcNAc(b1-4)GlcNAc
# Outline: as §1
# GlcNAc(b1-3)Fuc = biological target: GlcNAc(b1-3)Fuc
# Outline: as §1
# GlcNAc(b1-3)Gal = biological target: GlcNAc(b1-3)Gal
# Outline: as §1
# [21] = biological target: GlcNAc(b1-3)Gal(b1-3)GalNAc
# Outline: as §1
# GlcNAc(b1-3)Gal(b1-4)Glc = biological target: GlcNAc(b1-3)Gal(b1-4)Glc
# Outline: as §1
# [22] = biological target: GlcNAc(b1-3)Gal(b1-4)GlcNAc
# Outline: as §1
# [23] = biological target: GlcNAc(b1-3)Gal(b1-4)GlcNAc(b1-2)Man(a1-3)[GlcNAc(b1-3)Gal(b1-4)GlcNAc(b1-2)Man(a1-6)]Man(b1-4)GlcNAc(b1-4)GlcNAc
# Outline: as §1
# [24] = biological target: GlcNAc(b1-3)Gal(b1-4)GlcNAc(b1-2)Man(a1-3)[GlcNAc(b1-3)Gal(b1-4)GlcNAc(b1-2)Man(a1-6)]Man(b1-4)GlcNAc(b1-4)[Fuc(a1-6)]GlcNAc
# Outline: as §1
# [25] = biological target: GlcNAc(b1-3)Gal(b1-4)GlcNAc(b1-2)[GlcNAc(b1-3)Gal(b1-4)GlcNAc(b1-6)]Man(a1-6)[GlcNAc(b1-3)Gal(b1-4)GlcNAc(b1-2)Man(a1-3)]Man(b1-4)GlcNAc(b1-4)GlcNAc
# Outline: as §1
# [26] = biological target: GlcNAc(b1-3)Gal(b1-4)GlcNAc(b1-3)Gal(b1-4)GlcNAc
# Outline: as §1
# [27] = biological target: GlcNAc(b1-3)Gal(b1-4)GlcNAc(b1-3)Gal(b1-4)GlcNAc(b1-2)Man(a1-3)[GlcNAc(b1-3)Gal(b1-4)GlcNAc(b1-3)Gal(b1-4)GlcNAc(b1-2)Man(a1-6)]Man(b1-4)GlcNAc(b1-4)GlcNAc
# Outline: as §1
# [28] = biological target: GlcNAc(b1-3)Gal(b1-4)GlcNAc(b1-3)Gal(b1-4)GlcNAc(b1-2)Man(a1-3)[GlcNAc(b1-3)Gal(b1-4)GlcNAc(b1-3)Gal(b1-4)GlcNAc(b1-2)Man(a1-6)]Man(b1-4)GlcNAc(b1-4)[Fuc(a1-6)]GlcNAc
# Outline: as §1
# [29] = biological target: GlcNAc(b1-3)Gal(b1-4)GlcNAc(b1-3)Gal(b1-4)GlcNAc(b1-2)[GlcNAc(b1-3)Gal(b1-4)GlcNAc(b1-3)Gal(b1-4)GlcNAc(b1-6)]Man(a1-6)[GlcNAc(b1-3)Gal(b1-4)GlcNAc(b1-3)Gal(b1-4)GlcNAc(b1-2)Man(a1-3)]Man(b1-4)GlcNAc(b1-4)[Fuc(a1-6)]GlcNAc
# Outline: as §1
# [30] = biological target: GlcNAc(b1-3)Gal(b1-4)GlcNAc(b1-3)Gal(b1-4)GlcNAc(b1-3)Gal(b1-4)GlcNAc(b1-2)Man(a1-3)[GlcNAc(b1-3)Gal(b1-4)GlcNAc(b1-3)Gal(b1-4)GlcNAc(b1-3)Gal(b1-4)GlcNAc(b1-2)Man(a1-6)]Man(b1-4)GlcNAc(b1-4)GlcNAc
# Outline: as §1
# [31] = biological target: GlcNAc(b1-3)Gal(b1-4)GlcNAc(b1-3)Gal(b1-4)GlcNAc(b1-3)Gal(b1-4)GlcNAc(b1-2)Man(a1-3)[GlcNAc(b1-3)Gal(b1-4)GlcNAc(b1-3)Gal(b1-4)GlcNAc(b1-3)Gal(b1-4)GlcNAc(b1-2)Man(a1-6)]Man(b1-4)GlcNAc(b1-4)[Fuc(a1-6)]GlcNAc
# Outline: as §1
# [32] = biological target: GlcNAc(b1-3)Gal(b1-4)GlcNAc(b1-3)Gal(b1-4)GlcNAc(b1-3)Gal(b1-4)GlcNAc(b1-2)[GlcNAc(b1-3)Gal(b1-4)GlcNAc(b1-3)Gal(b1-4)GlcNAc(b1-3)Gal(b1-4)GlcNAc(b1-6)]Man(a1-6)[GlcNAc(b1-3)Gal(b1-4)GlcNAc(b1-3)Gal(b1-4)GlcNAc(b1-3)Gal(b1-4)GlcNAc(b1-2)Man(a1-3)]Man(b1-4)GlcNAc(b1-4)[Fuc(a1-6)]GlcNAc
# Outline: as §1
# [33] = biological target: GlcNAc(b1-3)Gal(b1-4)GlcNAc(b1-3)Gal(b1-4)GlcNAc(b1-3)Gal(b1-4)GlcNAc(b1-3)Gal(b1-4)GlcNAc(b1-2)Man(a1-3)[GlcNAc(b1-3)Gal(b1-4)GlcNAc(b1-3)Gal(b1-4)GlcNAc(b1-3)Gal(b1-4)GlcNAc(b1-3)Gal(b1-4)GlcNAc(b1-2)Man(a1-6)]Man(b1-4)GlcNAc(b1-4)GlcNAc
# Outline: as §1
# [34] = biological target: GlcNAc(b1-3)Gal(b1-4)GlcNAc(b1-3)Gal(b1-4)GlcNAc(b1-3)Gal(b1-4)GlcNAc(b1-3)Gal(b1-4)GlcNAc(b1-2)Man(a1-3)[GlcNAc(b1-3)Gal(b1-4)GlcNAc(b1-3)Gal(b1-4)GlcNAc(b1-3)Gal(b1-4)GlcNAc(b1-3)Gal(b1-4)GlcNAc(b1-2)Man(a1-6)]Man(b1-4)GlcNAc(b1-4)[Fuc(a1-6)]GlcNAc
# Outline: as §1
# [35] = biological target: GlcNAc(b1-3)Gal(b1-4)GlcNAc(b1-3)Gal(b1-4)GlcNAc(b1-3)Gal(b1-4)GlcNAc(b1-3)Gal(b1-4)GlcNAc(b1-2)[GlcNAc(b1-3)Gal(b1-4)GlcNAc(b1-3)Gal(b1-4)GlcNAc(b1-3)Gal(b1-4)GlcNAc(b1-3)Gal(b1-4)GlcNAc(b1-6)]Man(a1-6)[GlcNAc(b1-3)Gal(b1-4)GlcNAc(b1-3)Gal(b1-4)GlcNAc(b1-3)Gal(b1-4)GlcNAc(b1-3)Gal(b1-4)GlcNAc(b1-2)Man(a1-3)]Man(b1-4)GlcNAc(b1-4)[Fuc(a1-6)]GlcNAc
# Outline: as §1
# [36] = biological target: GlcNAc(b1-3)Gal(b1-4)GlcNAc(b1-3)Gal(b1-4)GlcNAc(b1-3)GalNAc
# Outline: as §1
# [37] = biological target: GlcNAc(b1-3)Gal(b1-4)GlcNAc(b1-3)GalNAc
# Outline: as §1
# [38] = biological target: GlcNAc(b1-3)Gal(b1-4)GlcNAc(b1-3)[GlcNAc(b1-3)Gal(b1-4)GlcNAc(b1-3)]GalNAc
# Outline: as §1
# [39] = biological target: GlcNAc(b1-3)Gal(b1-4)GlcNAc(b1-6)[Gal(b1-3)]GalNAc
# Outline: as §1
# [40] = biological target: GlcNAc(b1-3)Gal(b1-4)GlcNAc(b1-6)[GlcNAc(b1-3)Gal(b1-3)]GalNAc
# Outline: as §1
# [41] = biological target: GlcNAc(b1-3)Gal(b1-4)GlcNAc(b1-6)[GlcNAc(b1-3)]Gal(b1-4)GlcNAc
# Outline: as §1
# GlcNAc(b1-3)GalNAc = biological target: GlcNAc(b1-3)GalNAc
# Outline: as §1
binder,measurement,setting,value
"ABA (Agaricus bisporus), Q00022 (protein) MTYTISIRVYQTTPKGFFRPVERTNWKYANGGTWDEVRGEYVLTMGGSGTSGSLRFVSSDTDESFVATFGVHNYKRWCDIVTNLTNEQTALVINQEYYGVPIRDQARENQLTSYNVANAKGRRFAIEYTVTEGDNLKANLIIG",glycan array binding signal (z-score),[1],-0.058
same,glycan array binding signal (z-score),[2],-0.114
same,glycan array binding signal (z-score),[3],0.004
same,glycan array binding signal (z-score),[4],0.348
same,glycan array binding signal (z-score),[5],0.618
same,glycan array binding signal (z-score),[6],1.75
same,glycan array binding signal (z-score),[7],0.224
same,glycan array binding signal (z-score),[8],0.477
same,glycan array binding signal (z-score),[9],-0.248
same,glycan array binding signal (z-score),[10],5.72
same,glycan array binding signal (z-score),[11],1.29
same,glycan array binding signal (z-score),[12],2.54
same,glycan array binding signal (z-score),[13],1.24
same,glycan array binding signal (z-score),[14],1.7
same,glycan array binding signal (z-score),[15],0.283
same,glycan array binding signal (z-score),[16],-0.099
same,glycan array binding signal (z-score),[17],-0.287
same,glycan array binding signal (z-score),[18],2.04
same,glycan array binding signal (z-score),[19],2.45
same,glycan array binding signal (z-score),[20],-0.015
same,glycan array binding signal (z-score),GlcNAc(b1-3)Fuc,-0.174
same,glycan array binding signal (z-score),GlcNAc(b1-3)Gal,-0.207
same,glycan array binding signal (z-score),[21],2.1
same,glycan array binding signal (z-score),GlcNAc(b1-3)Gal(b1-4)Glc,-0.213
same,glycan array binding signal (z-score),[22],-0.103
same,glycan array binding signal (z-score),[23],0.536
same,glycan array binding signal (z-score),[24],1.08
same,glycan array binding signal (z-score),[25],-0.234
same,glycan array binding signal (z-score),[26],0.001
same,glycan array binding signal (z-score),[27],2.15
same,glycan array binding signal (z-score),[28],1.39
same,glycan array binding signal (z-score),[29],0.382
same,glycan array binding signal (z-score),[30],1.01
same,glycan array binding signal (z-score),[31],1.22
same,glycan array binding signal (z-score),[32],0.984
same,glycan array binding signal (z-score),[33],2.07
same,glycan array binding signal (z-score),[34],1.76
same,glycan array binding signal (z-score),[35],1.48
same,glycan array binding signal (z-score),[36],-0.202
same,glycan array binding signal (z-score),[37],0.272
same,glycan array binding signal (z-score),[38],0.316
same,glycan array binding signal (z-score),[39],0.941
same,glycan array binding signal (z-score),[40],2.74
same,glycan array binding signal (z-score),[41],0.002
same,glycan array binding signal (z-score),GlcNAc(b1-3)GalNAc,-0.068
